Results: PubChem BioAssay AID485364 (National Center for Advancing Translational Sciences (NCATS), 2010)
The campaign covered roughly 360,000 compounds. About 11,000 (3.1%) were called active. This list was built around the results that the source calls inconclusive (neither active nor inactive); the mix of calls is not that of the screen. Calls follow the shape of the dose curve; as a rule, active = well fitted inhibition curve with a large enough effect; inconclusive = small, poorly fitted or top-dose-only effect; inactive = no such curve, though single readings can be large or run the other way. Potencies of inconclusive entries are left out as doubtful fits.

The compounds below were run against Schistosoma mansoni thioredoxin glutathione reductase (TGR) (UniProt Q962Y6) (assay: qHTS Assay for the Inhibitors of Schistosoma Mansoni Peroxiredoxins). Details: purified TGR, DTNB reduction, TNB absorbance 405 nm; activity change, negative = inhibition: at 114 µM (top of the series) unless noted.
Procedure, shortened: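 TGR 20 nM + NADPH 100 uM (dispensed conc.), cpd preinc 15 min RT; start with NADPH (500 uM addition) then DTNB (15 mM addition). Kinetic TNB absorbance, 405 nm filter. Four-parameter Hill fit across titration.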
% is scaled to controls: 0 for no effect and ±100 for the full control effect; potency is read from the fitted curve at half-maximal effect; tags tell the direction and shape of the fitted curve.
Also: nearly all actives have a fitted effect of over 60% in size.

Row | Structure (SMILES) | activity change, negative = inhibition | Potency
1 | C/C(CCc1ccc2c(c1)OCO2)=N\NC(=O)c1ccccc1Br | inactive: 8.98% | 
2 | C=C(C)CNC(=O)c1ccc2nc(Cc3ccc(OC)cc3)oc2c1 | inactive: -5.44% | 
3 | CC(/C=N/Nc1nnc2c(n1)[nH]c1ccccc12)=C\c1ccco1 |  | inconclusive [inhibitor, partial curve, poor fit]
4 | Cc1cc2n(n1)SC(Nc1cccc3ccccc13)N2 (stereo unspecified) |  | inconclusive [inhibitor, partial curve]
5 | COc1ccc(C(=O)CC(=O)C(=O)Nc2ccc(C)cc2Cl)cc1 |  | inconclusive [inhibitor, full curve, poor fit]
6 | O=C(NC(=S)Nc1ccc(F)c(Cl)c1)C1CC1 |  | active: 15.8 µM
7 | COC(=O)c1sc(N)c(C(=O)OC)c1Cn1ncc(Cl)c(Cl)c1=O |  | active: 0.316 µM
8 | CCOCCCNC(=O)CNC(=S)N(Cc1ccc(C)cc1)Cc1ccco1 |  | inconclusive [inhibitor, full curve]
9 | C#Cc1ccc([C@@H]2C=C(C(=O)N3CCOCC3)O[C@H](OCCCCO)C2)cc1 |  | inconclusive [inhibitor, partial curve]
10 | c1ccc2cc(CNCc3cccc4ccccc34)ccc2c1 | inactive: 20.8% | 
11 | Cc1ccccc1N1C(=O)CC(N2CCC(C(N)=O)CC2)C1=O (stereo unspecified) |  | active: 22.4 µM
12 | Cc1ccc(C)c(C(=O)COC(=O)c2ccccc2N2C(=O)C3C4CCC(C4)C3C2=O)c1 (stereo unspecified) |  | inconclusive [inhibitor, partial curve]
13 | CCN1CCC(N(Cc2ccc(F)cc2)C(=O)Nc2cc(C)ccc2C)CC1 | inactive: 5.4% | 
14 | O=C(Nc1cccc(NC(=O)c2cccs2)c1)c1ccc([N+](=O)[O-])o1 |  | inconclusive [inhibitor, full curve]
15 | COc1ccc(CNC(=O)C2CCCCN2S(=O)(=O)c2ccc(F)cc2)cc1 (stereo unspecified) | inactive: -3.56% | 
16 | COc1ccc(N=Cc2nc(-c3ccccc3)oc2OC(C)=O)cc1 |  | inconclusive [inhibitor, full curve]
17 | Cc1nc2ccc(NC(=O)c3cc([N+](=O)[O-])cc([N+](=O)[O-])c3Cl)cc2s1 |  | active: 0.501 µM
18 | N#CC1=C(N)Oc2c(c(=O)oc3ccccc23)C1c1ccc(OC(=O)N2CCOCC2)cc1 (stereo unspecified) |  | inconclusive [inhibitor, full curve, poor fit]
19 | Cc1ccc(/C=C(\C#N)C(=O)Nc2cccc3ncccc23)o1 |  | active: 20 µM
20 | CCOC(=O)C1=C(COC(=O)/C=C/c2ccco2)NC(=O)NC1C (stereo unspecified) |  | inconclusive [inhibitor, partial curve]
21 | Cc1cc(Cl)ccc1OCCCC(=O)NO |  | inconclusive [inhibitor, partial curve]
22 | O=C(NC(=S)Nc1ccc(S(=O)(=O)Nc2ccccc2)cc1)C1CC1 |  | inconclusive [inhibitor, full curve, poor fit]
23 | Cc1ccc(CN(C(=O)c2ccco2)C(C(=O)NC2CCCC2)c2ccc(N3CCOCC3)cc2)cc1 (stereo unspecified) |  | inconclusive [inhibitor, partial curve]
24 | CN(C)CCCN1C(=O)c2oc3ccc(F)cc3c(=O)c2C1c1cccnc1 (stereo unspecified) |  | inconclusive [inhibitor, partial curve]

Row | Structure (SMILES) | activity change, negative = inhibition | Potency
25 | COC(=O)C(C)(C)ONC(=O)Nc1ccc(Br)cc1 |  | inconclusive [inhibitor, single point]
26 | CC1=C(C(=O)OC2CCCCC2)C(c2cccnc2)n2nnnc2N1 (stereo unspecified) | inactive: -1.99% | 
27 | Cc1ccc(S(=O)(=O)N(C)N=O)cc1 |  | inconclusive [inhibitor, partial curve]
28 | COc1cc(N2CCOCC2)ccc1/C=C1\C(=O)NC(=O)N(Cc2cccs2)C1=O |  | inconclusive [inhibitor, full curve]
29 | O=C(CSc1ccccc1)Nc1ccc(S(=O)(=O)NCC2CCCO2)cc1 (stereo unspecified) |  | inconclusive [inhibitor, full curve, poor fit]
30 | CCC(=O)NC(=S)Nc1ccc(NC(=O)c2cccnc2)cc1 |  | inconclusive [inhibitor, partial curve]
31 | CC1=CC(c2ccccc2)n2nc(NC(=O)CCCC(=O)O)nc2N1 (stereo unspecified) |  | active: 20 µM
32 | COc1cccc(N2CCN(C(=O)/C=C/c3ccco3)CC2)c1 |  | active: 22.4 µM
33 | NC(=O)C1CCN(C(=O)C2c3ccccc3C(=O)N3CCc4ccccc4C23)CC1 (stereo unspecified) | inactive: 2.84% | 
34 | CC1CC1C(=O)OCC(=O)NCc1ccccc1Cl (stereo unspecified) |  | inconclusive [inhibitor, single point]
35 | COc1ccc(C2(CNC(=O)C(=O)Nc3ccc(C)c(Cl)c3)CCCC2)cc1OC | inactive: -2.9% | 
36 | COc1ccc(/C=C2\C(=O)ON=C2c2ccccc2)cc1OC |  | inconclusive [inhibitor, partial curve]
37 | Cc1cc(C(=O)NCc2ccco2)on1 |  | inconclusive [inhibitor, full curve, poor fit]
38 | Cc1ncsc1CCOC(=O)c1ccccc1 | inactive: -6.54% | 
39 | COC(=O)C1C(=O)/C(=C/N(C)C)C(=O)CC1(C)C (stereo unspecified) |  | inconclusive [inhibitor, partial curve]
40 | C=CCNC(=S)/N=c1/ccccn1CC |  | inconclusive [inhibitor, full curve]
41 | COc1cc(C(C[N+](=O)[O-])c2c(-c3ccccc3)cc3ccccn23)cc(OC)c1OC (stereo unspecified) |  | active: 8.91 µM
42 | CCOC(=O)C1CCCN(C(c2ccccn2)c2c(C)[nH]c3ccccc23)C1 (stereo unspecified) |  | active: 0.316 µM
43 | COc1ccc(C(=O)c2ccc(Cl)c([N+](=O)[O-])c2)cc1 |  | inconclusive [inhibitor, partial curve]
44 | O=C(CCCn1c(=S)[nH]c2cc3c(cc2c1=O)OCO3)N1CCN(C2CCCCC2)CC1 |  | inconclusive [inhibitor, full curve, poor fit]
45 | COc1ccccc1NC(=O)CSc1nnc(C2CCCCC2)n1C |  | inconclusive [inhibitor, full curve, poor fit]
46 | Cc1ccc(S(=O)(=O)N(C)C)cc1NC(=O)c1cc(-c2ccco2)nc2ccccc12 |  | inconclusive [inhibitor, full curve, poor fit]
47 | COc1ccc(N2CCN(c3ncnc4c3nc3n4CCCCC3)CC2)cc1 | inactive: -12.4% | 
48 | Cc1ccc(S(=O)(=O)N(C)C)cc1NC(=O)COC(=O)c1ccc2c(=O)n3c(nc2c1)CCC3 | inactive: 1.32% | 

Row | Structure (SMILES) | activity change, negative = inhibition | Potency
49 | Cc1ccc(N2CN(S(=O)(=O)c3cccc([N+](=O)[O-])c3)c3nc4ccccc4nc32)cc1 |  | active: 44.7 µM
50 | Cc1nc(N2CCN(C(=O)c3ccco3)CC2)c2c3c(sc2n1)CCC3 |  | inconclusive [inhibitor, single point]
51 | COc1ccc(S(=O)(=O)CCC(=O)Nc2cc(C)ccc2OC)cc1 |  | inconclusive [inhibitor, partial curve]
52 | CCC(C)(C)NC(=O)C(c1ccccc1F)N(Cc1ccco1)C(=O)Cn1nnc2ccccc21 (stereo unspecified) |  | inconclusive [inhibitor, full curve]
53 | Nc1c(C(=O)NCc2ccco2)sc2nc(N3CCOCC3)c3c(c12)CCCC3 |  | inconclusive [inhibitor, partial curve]
54 | O=C(Nc1ccc(Cl)cc1)c1ccc2ncsc2c1 | inactive: -1.79% | 
55 | Cc1noc(C)c1-c1ccc2ncnc(NC(C)c3ccco3)c2c1 (stereo unspecified) |  | inconclusive [inhibitor, partial curve]
56 | O=C1N/C(=C/c2cccn2-c2ccccc2)C(=O)N1Cc1ccc(F)cc1 |  | inconclusive [inhibitor, partial curve]
57 | O=C(NCCC(=O)N1CCN(c2ccc(F)cc2)CC1)c1ccco1 |  | active: 44.7 µM
58 | O=C(Nc1n[nH]c(=S)s1)c1ccc2ccccc2c1 | inactive: -3.51% | 
59 | O=C(COc1ccc(-n2cnnn2)cc1)N1CCN(c2ccc(F)cc2)CC1 |  | inconclusive [inhibitor, single point]
60 | COc1ccc(C(=O)N/C(=C\c2ccco2)C(=O)NCc2ccco2)cc1 |  | active: 44.7 µM
61 | COc1ccc(OC)c(NC(=O)Nc2cccc(OCc3cc(=O)n4cc(C)ccc4n3)c2)c1 |  | inconclusive [inhibitor, full curve, poor fit]
62 | Cc1cc(O)c(C(c2ccc(F)cc2)N2CCN(c3ccccc3)CC2)c(=O)n1Cc1ccco1 (stereo unspecified) |  | active: 10 µM
63 | CN(C(=O)c1cccc(NC(=O)c2cccs2)c1)c1ccccc1 |  | inconclusive [inhibitor, partial curve]
64 | Cc1cnc(NC(=O)c2cccc(S(=O)(=O)N3CCOCC3)c2)s1 | inactive: -1.05% | 
65 | COc1ccc(CCNC(=O)c2noc(C(C)C)c2[N+](=O)[O-])cc1OC |  | active: 35.5 µM
66 | Cc1ccccc1NC(=S)NC(=O)Cc1ccc(Cl)cc1 |  | inconclusive [inhibitor, full curve]
67 | Cc1ccccc1-n1nc(C)c2cc(C(=O)N3CCN(S(=O)(=O)c4ccc(F)cc4)CC3)sc21 | inactive: 3.79% | 
68 | CC1(C)Cc2c(c(-c3ccco3)nc3sc4c(NCCCO)ncnc4c23)CO1 |  | active: 2 µM
69 | CCn1nc(C)c(CN2CCc3c([nH]c4ccccc34)C2C(C)(C)C)c1C (stereo unspecified) |  | inconclusive [inhibitor, partial curve]
70 | COc1cc(CNCc2ccc(OC)cc2OC)cc(OC)c1 |  | inconclusive [inhibitor, partial curve]
71 | COC(=O)C1=C(CSc2nc3c(cc2C#N)CN(C)CC3)OC(N)=C(C#N)C1c1ccc(F)cc1 (stereo unspecified) |  | inconclusive [inhibitor, partial curve]
